PubChem BioAssay (NCI)
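48-hour exposure; five concentrations; linearly interpolated endpoints. At the TGI there is no net growth.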

How the values were obtained:
Assay in all cases: DTP human tumour cell line panel, 48 h
DU-145 prostate = tested on: DU-145 prostate
SR leukemia = tested on: SR leukemia
SK-MEL-28 melanoma = tested on: SK-MEL-28 melanoma
786-0 renal = tested on: 786-0 renal
SF-268 CNS = tested on: SF-268 CNS
MCF7 breast = tested on: MCF7 breast
HCT-116 colon = tested on: HCT-116 colon
OVCAR-3 ovarian = tested on: OVCAR-3 ovarian
SK-MEL-5 melanoma = tested on: SK-MEL-5 melanoma
OVCAR-8 ovarian = tested on: OVCAR-8 ovarian
NCI-H23 lung = tested on: NCI-H23 lung
SF-539 CNS = tested on: SF-539 CNS
NCI-H460 lung = tested on: NCI-H460 lung
BT-549 breast = tested on: BT-549 breast
SNB-75 CNS = tested on: SNB-75 CNS
HOP-92 NSCLC = tested on: HOP-92 NSCLC
LOX IMVI melanoma = tested on: LOX IMVI melanoma
CCRF-CEM leukemia = tested on: CCRF-CEM leukemia
OVCAR-5 ovarian = tested on: OVCAR-5 ovarian
SF-295 CNS = tested on: SF-295 CNS
COLO 205 colon = tested on: COLO 205 colon
RXF 393 renal = tested on: RXF 393 renal
A549 NSCLC = tested on: A549 NSCLC
TK-10 renal = tested on: TK-10 renal
A498 renal = tested on: A498 renal
HT29 colon = tested on: HT29 colon
MOLT-4 leukemia = tested on: MOLT-4 leukemia
RPMI-8226 leukemia = tested on: RPMI-8226 leukemia
MALME-3M melanoma = tested on: MALME-3M melanoma
HCC-2998 colon = tested on: HCC-2998 colon
MDA-N = tested on: MDA-N
SN12C renal = tested on: SN12C renal
IGROV1 ovarian = tested on: IGROV1 ovarian
NCI/ADR-RES ovarian = tested on: NCI/ADR-RES ovarian
HOP-62 NSCLC = tested on: HOP-62 NSCLC
EKVX NSCLC = tested on: EKVX NSCLC
HS 578T breast = tested on: HS 578T breast
CAKI-1 renal = tested on: CAKI-1 renal
K-562 leukemia = tested on: K-562 leukemia
U251 CNS = tested on: U251 CNS
NCI-H226 lung = tested on: NCI-H226 lung
KM12 colon = tested on: KM12 colon
SW-620 colon = tested on: SW-620 colon
HL-60(TB) leukemia = tested on: HL-60(TB) leukemia
UACC-257 melanoma = tested on: UACC-257 melanoma
ACHN renal = tested on: ACHN renal
PC-3 prostate = tested on: PC-3 prostate
NCI-H522 lung = tested on: NCI-H522 lung
HCT-15 colon = tested on: HCT-15 colon
MDA-MB-435 = tested on: MDA-MB-435
MDA-MB-231 breast = tested on: MDA-MB-231 breast
SNB-19 CNS = tested on: SNB-19 CNS

O=C1Cc2c([nH]c3ccc(F)cc23)-c2ccccc2N1
TGI (DU-145 prostate): > 100 µM
TGI (SR leukemia): 42.5 µM
TGI (SK-MEL-28 melanoma): > 100 µM
TGI (786-0 renal): > 100 µM
TGI (SF-268 CNS): > 100 µM
TGI (MCF7 breast): 82.4 µM
TGI (HCT-116 colon): > 100 µM
TGI (OVCAR-3 ovarian): > 100 µM
TGI (SK-MEL-5 melanoma): 30.4 µM
TGI (OVCAR-8 ovarian): > 100 µM
TGI (NCI-H23 lung): > 100 µM
TGI (SF-539 CNS): 75.4 µM
TGI (NCI-H460 lung): > 100 µM
TGI (BT-549 breast): > 100 µM
TGI (SNB-75 CNS): > 100 µM
TGI (HOP-92 NSCLC): 77.5 µM
TGI (LOX IMVI melanoma): > 100 µM
TGI (CCRF-CEM leukemia): 68.7 µM
TGI (OVCAR-5 ovarian): 88.1 µM
TGI (SF-295 CNS): > 100 µM
TGI (COLO 205 colon): > 100 µM
TGI (RXF 393 renal): 11 µM
TGI (A549 NSCLC): 37.5 µM
TGI (TK-10 renal): > 100 µM
TGI (A498 renal): 87.9 µM
TGI (HT29 colon): 85.1 µM
TGI (MOLT-4 leukemia): 49.9 µM
TGI (RPMI-8226 leukemia): 41.6 µM
TGI (MALME-3M melanoma): > 100 µM
TGI (HCC-2998 colon): 63.1 µM
TGI (MDA-N): > 100 µM
TGI (SN12C renal): 97.9 µM
TGI (IGROV1 ovarian): > 100 µM
TGI (NCI/ADR-RES ovarian): > 100 µM
TGI (HOP-62 NSCLC): 92.5 µM
TGI (EKVX NSCLC): > 100 µM
TGI (HS 578T breast): 68.6 µM
TGI (CAKI-1 renal): > 100 µM
TGI (K-562 leukemia): > 100 µM
TGI (U251 CNS): 81.8 µM
TGI (NCI-H226 lung): > 100 µM
TGI (KM12 colon): > 100 µM
TGI (SW-620 colon): > 100 µM
TGI (HL-60(TB) leukemia): 45.5 µM
TGI (UACC-257 melanoma): > 100 µM
TGI (ACHN renal): > 100 µM
TGI (PC-3 prostate): 96.5 µM
TGI (NCI-H522 lung): 51.2 µM
TGI (HCT-15 colon): 73.2 µM
TGI (MDA-MB-435): > 100 µM
TGI (MDA-MB-231 breast): > 100 µM
TGI (SNB-19 CNS): > 100 µM
